Source: ChEMBL document CHEMBL1156829
The full ranking holds about 5,400 compounds; the median of “IFI” is about 2, and the highest 2% start at about 22. The list shows a part of the results.

Assay: NOVARTIS: Inhibition Frequency Index (IFI) - the number of HTS assays where a compound showed > 50% inhibition/induction, expressed as a percentage of the number of assays in which the compound was tested.
Type: functional

SMILES	IFI [%]
COC1=C(Nc2cccc(C(F)(F)F)c2)C(=O)c2ccccc2C1=O	4.65
CCOC(=O)C1(CC2CCCCO2)CCN(Cc2cccc(C)n2)CC1 (stereo unspecified)	0
C/C=C/C(C(=O)NCCCC)N1C(=O)c2cc(NC(C)=O)ccc2NC(=O)[C@@H]1CCC(=O)O (stereo partly specified)	1.24
Cc1ccc(CNC(=O)c2cc(=O)[nH]c3ccc(S(=O)(=O)N4CCOCC4)cc23)cc1	0
COc1ccc(-c2noc(CC(=O)Nc3ccccc3C#N)n2)cc1	0
CCOC(=O)c1ccc2c(c1)[C@@H]1C=CC[C@@H]1[C@H](c1cccc(OC)c1OC)N2	0
CC(C)Cc1nc(N2CCOCC2)c2nnn(Cc3ccccc3)c2n1	0
CC1=C(C(=O)OC(C)C)C(c2cccc([N+](=O)[O-])c2)C2=C(CCCC2=O)N1 (stereo unspecified)	1.15
CCOC(=O)c1cnc2c(OC)cccc2c1Nc1ccc(C(C)=O)cc1	0
Cc1ccc2ncnc(Nc3cccc(C(F)(F)F)c3)c2c1	4.41
CCOC(=O)c1sc(-c2cnccc2C(F)(F)F)nc1C	5.68
O=C(COc1ccc(Cl)cc1)Nc1nnc(-c2ccc3c(c2)OCO3)s1	1.71
COCCn1c(=S)[nH]c2cc(C(=O)NCCc3ccc(S(N)(=O)=O)cc3)ccc2c1=O	0
CC(C)CC(N)C(=O)NCCCNc1nsc2ccccc12 (stereo unspecified)	20.8
CCOC(=O)C(Cc1ccc(O)cc1)NC1=CC(=O)C(=O)c2ccccc21 (stereo unspecified)	0
O=C(CCNS(=O)(=O)c1ccc(Br)s1)N1CCc2ccccc2C1	0
O=C(Nc1ccc(-c2cc(-c3ccccc3)nc(-c3ccc(NC(=O)c4cccc([N+](=O)[O-])c4)cc3)n2)cc1)c1cccc([N+](=O)[O-])c1	0
COC(=O)C1=C(C)N/C(=C/c2cc(C)n(-c3ccc(Cl)c(Cl)c3)c2C)C1=O	0
COc1cc(Nc2cncc(-c3ccncc3)n2)cc(OC)c1OC	0
C=C(C)C(=O)OCCc1ccc(O)c(-n2nc3ccccc3n2)c1	0
O=C1C(Nc2ccc(O)cc2)=CC(=NS(=O)(=O)c2cccs2)c2ccccc21	23.1
COc1ccc(-n2nc([N+](=O)[O-])c(Nc3ccc([N+](=O)[O-])cc3C)[n+]2[O-])cc1	0
O=[N+]([O-])c1cc(Br)c(Nc2ccccc2)c([N+](=O)[O-])c1	7.69
Cc1c(NC(=O)C2c3ccccc3C(=O)N3CCc4ccccc4C23)cccc1[N+](=O)[O-] (stereo unspecified)	0

SMILES	IFI [%]
CC(=O)N(C1=C(N2CCCCC2)C(=O)c2ccccc2C1=O)c1ccccc1C	0
O=C(Nc1ccc(Cl)c(C(F)(F)F)c1)NC1CC2CCC(C1)N2C1CCCC1 (stereo unspecified)	1.28
CCC(SC1=Nc2ccccc2C2=NC(C(C)C)C(=O)N12)C(=O)Nc1cccc(C)c1 (stereo unspecified)	1.16
COc1cc(NC(C)CCCN(Cc2ccccc2OC)C(=O)COCc2ccccc2)c2ncccc2c1 (stereo unspecified)	2.8
c1ccc2c(NC3CCCC3)nc(Nc3ccc4c(c3)OCO4)nc2c1	0
Cc1ncc(CN2CCC(C(=O)Nc3ccc(-c4nc5ccccc5o4)cc3)CC2)s1	0
CCC(C)(C)c1ccc(OCCOCC[n+]2ccccc2)c(C(C)(C)CC)c1	6.52
CCCCCN(C(=O)Nc1ccccc1OC)C(C)c1nc2ccccc2c(=O)n1-c1ccccc1OCC (stereo unspecified)	3.7
O=C1NN=C(CC(=O)N2CC[C@@H](c3ccccc3)[C@H](O)C2)C2C=CC=CC12 (stereo partly specified)	0
CCOc1ccc(S(=O)(=O)N=C2C=C(Nc3ccc(O)cc3)C(=O)c3ccccc32)cc1	15.4
COc1ccc2c(c1)OC(O)(C(F)(F)C(F)(F)F)CC2=O (stereo unspecified)	0
CCOC(=O)C1=C(C)NC2=C(C(=O)CC(c3ccc(OC)c(OC)c3)C2)C1c1ccc(F)cc1 (stereo unspecified)	8.33
CCC(C)CNC(=O)c1ccc(OC2CCN(CC3CCCCC3)CC2)c(Cl)c1 (stereo unspecified)	2.78
CCN1/C(=C/C=C/c2oc3ccc4ccccc4c3[n+]2CC)Oc2ccc3ccccc3c21	19.7
CCNC(=O)N1CCN(CCN(C/C=C/c2ccccc2OC)C(=O)CC(C)CC(C)(C)C)CC1 (stereo unspecified)	2.54
COCCCNC(=O)c1cc(NC(=O)CCCCl)ccc1N1CCc2ccccc2C1	2.17
COc1cc(-c2nc(-c3ccccc3)c(-c3cccc(C(F)(F)F)c3)[nH]2)cc(OC)c1O	4.71
COc1ccc(C2C(C(=O)OC3CCCC3)=C(C)NC3=C2C(=O)CC(C)(C)C3)cc1Br (stereo unspecified)	2.27
COc1ccc(-n2nc3c(c2NC(=O)/C=C\c2cc(OC)c(OC)c(OC)c2)CSC3)cc1	3.53
c1ccc(-c2nn(-c3ccccc3)[n+](-c3cccc4ccccc34)n2)cc1	14.3
CCCCCC(=O)Oc1ccccc1-c1nc2ccccn2c1NC(C)(C)CC(C)(C)C	2.86
Cc1nc(-c2nc3c(s2)CN(C(=O)c2ccncc2)CC3)cs1	5.56
CCN1C(=Cc2ccc3c4ccoc4ccc3[n+]2CC)C=Cc2c1ccc1occc21	28.6
O=C(NC1CCN(CC(O)CN(Cc2ccccc2)S(=O)(=O)c2ccccc2)C1)c1ccsc1 (stereo unspecified)	1.91

SMILES	IFI [%]
COc1ccc(-c2nc(NC(=O)CS(=O)(=O)c3ccccc3)sc2C)cc1	0
Fc1ccc(Nc2nc(NCC3CCCO3)c3ccccc3n2)cc1 (stereo unspecified)	0
COc1ccc(N2C(=O)/C(=C3/C(=O)Nc4ccc(F)cc43)SC2=S)c(OC)c1	0
CCN(CC)CCCNC(=S)N(Cc1ccc(F)cc1)Cc1cc2cc(C)cc(C)c2[nH]c1=O	11.7
CN(CCCNc1ccnc2cc(Cl)ccc12)C(=O)/C=C/c1ccccc1	0.935
Cn1c(C(C#N)C(=S)NC2CCCCC2)nc2cccnc21 (stereo unspecified)	7.14
CN(CCCNc1ccnc2cc(Cl)ccc12)C(=O)C1CCC1	3.7
COc1ccc(CCN2CC(CNC(=O)Cc3cccnc3)C(c3ccc(N(C)C)cc3)C2)cc1OC (stereo unspecified)	4.29
CN(C)C=Nc1nn(C)cc1C(=O)Nc1ccc(F)c(Cl)c1	0.82
CC(=NO)c1ccc2c(c1)C(C)(C)CCC2(C)C	4.17
CC(=O)Nc1cc(C(F)(F)F)cc(C(F)(F)F)c1	0
O=C(NCCc1ccccc1)c1cnc(NCCCN2CCCC2)nc1Nc1ccccc1	0.962
COc1c([N+](=O)[O-])cc2c(c1Br)OC1(C=C2)N(C)c2ccccc2C1(C)C (stereo unspecified)	0
CCOc1ccc(N(CC)S(=O)(=O)c2cc(Br)cc3c2N(C(C)=O)CC3)cc1	0
COc1ccc(CNc2cc(-c3ccc(F)c(F)c3)nc3ccnn23)cc1	3.03
CCOC(=O)c1c(NC(=O)CSc2nnc(CNC(=O)c3cccc(C)c3)n2-c2cccc(C)c2)sc2c1CCC2	2.33
COc1ccccc1NC(=O)N1CCN(C(=O)c2nc(-c3ccccc3)nc(C)c2C(=O)OC(C)C)CC1C (stereo unspecified)	0.943
CCOC(=O)CCC(=O)Oc1cc(C(C)(C)C)nn1-c1ccc(Cl)c(Cl)c1	6.36
CC(CCc1ccccc1)N1CC(c2cccc([N+](=O)[O-])c2)OC1=S (stereo unspecified)	0
CCN(CC)CCCC(C)Nc1ccnc2cc(Cl)ccc12 (stereo unspecified)	1.16
CCCCN1C(=O)/C(=C2/Sc3ccccc3N2C)SC1=Nc1cc(C)ccc1C	0
CCOc1cc([N+](=O)[O-])cc(C=Nc2cccc(NC(=O)c3ccco3)c2)c1O	7.14
C#CC[N+]1(CC#Cc2cccc3ccccc23)CCCCC1	3.64
COc1cc(C=NNC(=O)Cc2nnc(N)s2)ccc1O	7.69

SMILES	IFI [%]
OC(CN1CCN(C2c3ccccc3-c3ccccc32)CC1)Cn1c2ccc(Br)cc2c2cc(Br)ccc21 (stereo unspecified)	1.51
COc1ccc(C2CC(=O)C3=C(C2)NC(C)=C(C(=O)OC2CCCC2)C3c2ccc(F)cc2)cc1 (stereo unspecified)	3.49
Cc1ccc(Cn2c(N3CCC(C(=O)NCc4cccs4)CC3)nc3ccccc32)cc1	2.7
c1ccc([Si]2(c3ccccc3)N[Si](c3ccccc3)(c3ccccc3)N[Si](c3ccccc3)(c3ccccc3)N2)cc1	1.98
CC1=NN(c2ccc(C(=O)O)cc2)C(=O)/C1=C\c1ccc([N+](=O)[O-])o1	4.76
O=C(CSc1ccc2nnc(-c3cccc(F)c3)n2n1)Nc1ccc2c(c1)OCO2	0
CC(C)COc1nc(-c2ccccc2)n(S(=O)(=O)c2cccc3cccnc23)n1	4.17
CC(C)CNC(=O)c1cnc(NCCCN2CCCCC2C)nc1NCC1CCCCC1 (stereo unspecified)	2.88
COC(=O)C1=CNC=C(C(=O)OC)C1c1cc(OC)c(OC)cc1OC	4.88
CCC(c1nc2ccccc2c(=O)n1-c1cccc(C)c1)N(CCc1ccccc1)C(=O)Nc1c(C(C)C)cccc1C(C)C (stereo unspecified)	0.943
COc1cc(-c2cc(C)c3c(OC)ccc(OC)c3n2)cc2c1OCCN(C(=O)CCn1nc(C)cc1C)C2	12.5
COc1ccc(-n2nc(C(=O)NCCC3=CCCCC3)c3ccccc3c2=O)cc1	3.57
CN(C)CCNCc1cc(-c2ccnc3cc(Cl)ccc23)ccc1O	1.75
Cn1nc(C(F)(F)F)c(C(=O)Nc2cccc(C(F)(F)F)c2)c1SCc1ccc(Cl)cc1	2.53
O=C(/C=C/c1ccccc1)Nc1ccc(C(=O)OC[C@@H]2CCCN3CCCC[C@H]23)cc1	0
COc1ccc2c(c1)-c1c(ssc1=S)C(C)(C)N2C(=O)c1ccccc1F	0
O=[N+]([O-])c1ccc(N2CCN(C(=S)Nc3ccccc3)CC2)cc1	0
COc1ccc(-c2n(C)c3ccccc3[n+]2CC(=O)OC2CC(C)CCC2C(C)C)cc1 (stereo unspecified)	22.7
COc1ccccc1N1CCN(C(=O)Nc2ccc3ccccc3c2)CC1	0
CCCCCCn1c2c(c(=N)c3ccccc31)CCC2	7.14
CCNc1nc(NC(C)CC)nc(ON=C(C)C)n1 (stereo unspecified)	0
CCCc1c(C)nc2ccc(Br)cc2c1O	3.03
C=CCSc1nc(N)c2c3c(sc2n1)CN(CCC)CC3	14
CCOC(=O)C1=C(C)NC2=C(C(=O)CC(c3ccc(OC)c(OC)c3)C2)C1c1cccc(C)c1 (stereo unspecified)	8.75
